Source: article PMC11995724, “Antibiotic target discovery by integrated phenotypic and activity-based profiling of electrophilic fragments” (Cell chemical biology, 2025)
Out of some 3,200 compounds screened, about 110 (3.4%) showed an effect of 50% or more. Some of the results follow.

Test system: T1, V. cholerae SAD30
T1 construct: SAD30
Design: species or system S. aureus MSSA476 (TSB) or V. cholerae SAD30 (LB); 384-well bacterial growth screen at 25 uM, OD600 relative to DMSO control
Details: relative growth, OD600, LB; 25 µM; inhibitor

SMILES	% of control remaining [%]
C=CC(=O)NCCC(=O)NC1CCCCC12OCCO2 (stereo not shown) [2-O08, N-[2-({1,4-dioxaspiro[4.5]decan-6-yl}carbamoyl)ethyl]prop-2-enamide]	88.9607
Cl.O=C(CCl)Nc1ccc(CN2CCCCC2)cc1 [6-M04, 2-chloro-N-{4-[(piperidin-1-yl)methyl]phenyl}acetamide hydrochloride]	99.8009
O=C(CCl)Cc1ccc(F)c(F)c1 [10-O17, 1-chloro-3-(3,4-difluorophenyl)propan-2-one]	19.3259
NC(=O)COc1ccc(C(=O)CCl)cc1 [10-M07, 2-[4-(2-chloroacetyl)phenoxy]acetamide]	49.25
N#CC(=Cc1cn(-c2ccccc2)nc1-c1ccc(Cl)cc1)C(N)=O [8-H16, 3-[3-(4-chlorophenyl)-1-phenyl-1H-pyrazol-4-yl]-2-cyanoprop-2-enamide]	69.4086
CCCNC(=O)C(C#N)=Cc1cnc2c(C)cccn12 [9-N14, 2-cyano-3-{8-methylimidazo[1,2-a]pyridin-3-yl}-N-propylprop-2-enamide]	89.9388
CC(Cl)C(=O)N1CCC(N(C)Cc2cc(=O)[nH]c(N(C)C)n2)C1 (stereo not shown) [7-E18, 6-({[1-(2-chloropropanoyl)pyrrolidin-3-yl](methyl)amino}methyl)-2-(dimethylamino)-3,4-dihydropyrimidin-4-one]	74.938
Cc1nn(-c2ccccc2)c(C)c1C=C(C#N)C(=O)Nc1nccs1 [9-E07, 2-cyano-3-(3,5-dimethyl-1-phenyl-1H-pyrazol-4-yl)-N-(1,3-thiazol-2-yl)prop-2-enamide]	86.9477
CC(Cl)C(=O)N1CCCC1c1nc(N(C)C)no1 (stereo not shown) [7-F19, 2-chloro-1-{2-[3-(dimethylamino)-1,2,4-oxadiazol-5-yl]pyrrolidin-1-yl}propan-1-one]	80.489
CCOC(=O)c1c(NC(=O)C(C)Cl)sc2c1CCC(C)C2 (stereo not shown) [5-D04, ethyl 2-(2-chloropropanamido)-6-methyl-4,5,6,7-tetrahydro-1-benzothiophene-3-carboxylate]	91.6255
C=CC(=O)NCCN1CCCCC1C (stereo not shown) [2-M09, N-[2-(2-methylpiperidin-1-yl)ethyl]prop-2-enamide]	90.5047
C=CC(=O)N1CCC(O)(C(F)(F)C(N)=O)C1 (stereo not shown) [2-C16, 2,2-difluoro-2-[3-hydroxy-1-(prop-2-enoyl)pyrrolidin-3-yl]acetamide]	94.2102
COc1ccc(C=C(C#N)C(=O)Nc2c(C)cccc2C)cc1OC [8-A17, 2-cyano-3-(3,4-dimethoxyphenyl)-N-(2,6-dimethylphenyl)prop-2-enamide]	86.6757
C=CC(=O)Nc1cnn(-c2ccncc2)c1C(F)F [1-O09, N-[5-(difluoromethyl)-1-(pyridin-4-yl)-1H-pyrazol-4-yl]prop-2-enamide]	88.4903
CC(C)NC(=O)C(C#N)=Cc1cc(F)ccc1F [8-C08, 2-cyano-3-(2,5-difluorophenyl)-N-(propan-2-yl)prop-2-enamide]	74.0313
Cc1ccc(-c2csc(NC(=O)CCl)n2)cc1C [5-F16, 2-chloro-N-[4-(3,4-dimethylphenyl)-1,3-thiazol-2-yl]acetamide]	91.9618
C=CC(=O)NCc1cc(Cl)cc(S(C)(=O)=O)c1 [3-N15, N-[(3-chloro-5-methanesulfonylphenyl)methyl]prop-2-enamide]	93.8541
C=CC(=O)Nc1cc(NC(=O)[C@H]2C[C@@H](C(C)=O)C2(C)C)ccc1F [2-H22, (1S,3R)-3-acetyl-N-[4-fluoro-3-(prop-2-enamido)phenyl]-2,2-dimethylcyclobutane-1-carboxamide]	103.783
C=CC(=O)Nc1ccc2cc(N(C)C)ccc2c1 [1-E19, N-[6-(dimethylamino)naphthalen-2-yl]prop-2-enamide]	72.6457
C=CC(=O)Nc1cc(NC(=O)C2(OC)CCOC2)ccc1F (stereo not shown) [3-D05, N-[4-fluoro-3-(prop-2-enamido)phenyl]-3-methoxyoxolane-3-carboxamide]	99.5001
Cc1cc(C(=O)CCl)c(C)n1-c1cc(Cl)cc(Cl)c1 [10-I04, 2-chloro-1-[1-(3,5-dichlorophenyl)-2,5-dimethyl-1H-pyrrol-3-yl]ethan-1-one]	87.746
O=C(CCl)NCCc1nc2c(s1)CCCCC2 [4-J21, 2-chloro-N-(2-{4H,5H,6H,7H,8H-cyclohepta[d][1,3]thiazol-2-yl}ethyl)acetamide]	113.004
C=CC(=O)N1CCC(c2nnnn2C)CC1 [2-I06, 1-[4-(1-methyl-1H-1,2,3,4-tetrazol-5-yl)piperidin-1-yl]prop-2-en-1-one]	93.747
COc1ccccc1C=CC=C(C#N)C(=O)Nc1ccccn1 [9-L17, 2-cyano-5-(2-methoxyphenyl)-N-(pyridin-2-yl)penta-2,4-dienamide]	76.2067
O=C(CCl)NCc1ccccc1CS(=O)(=O)N1CCOCC1 [4-G08, 2-chloro-N-({2-[(morpholine-4-sulfonyl)methyl]phenyl}methyl)acetamide]	100.755
N#CC(C(=O)Nc1ccc(Cl)cc1)=C(S)Nc1ccccc1 [8-H22, N-(4-chlorophenyl)-2-cyano-3-(phenylamino)-3-sulfanylprop-2-enamide]	67.777
C=CC(=O)N1CCCc2cccc(F)c21 [1-L19, 1-(8-fluoro-1,2,3,4-tetrahydroquinolin-1-yl)prop-2-en-1-one]	87.8924
CC(C)Cc1ccc(C(C)NC(=O)CCl)cc1 (stereo not shown) [4-H03, 2-chloro-N-{1-[4-(2-methylpropyl)phenyl]ethyl}acetamide]	114.384
